According to PubChem BioAssay AID1508624 (National Center for Advancing Translational Sciences (NCATS), 2021):
In all, about 48,000 compounds went through this assay and about 120 (0.25%) were called active. Another 4% or so got no clear call; they are omitted. Calls follow the shape of the dose curve; as a rule, active = well fitted activation curve with a large enough effect; inconclusive = small, poorly fitted or top-dose-only effect, or another doubt; inactive = no such curve, though single readings can be large or run the other way. The list shows a part of the results.

Assay: Primary qHTS for Identification of Small Molecule Activators of Huntingtin-Antisense Promoter Activity; also: nearly all actives have a fitted effect of over 55% in size
Details: HEK293 HTT-AS promoter firefly luciferase reporter, 24 h; series mostly up to 57.5 µM; activity change, positive = activation: at the top concentration
In short: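 Quantitative HTS used concentration series of up to 57.5 uM final on HEK293 luciferase reporter cells, 24 h at 37 degrees C. Readout was Dual-Glo firefly luminescence.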

Activity change, positive = activation, inactive:
Cc1ccccc1C(=O)Nc1ccccc1C(=O)OCc1cc(=O)n2ccsc2n1 -20.9%
CCCCN(CCCC)CCNC(=O)c1cn(C)c2ccc(S(=O)(=O)N3CCOCC3)cc2c1=O 4.65% [at 11.5 µM, percent change from vehicle, -100% = no light]
Cc1c(Cl)cccc1NS(=O)(=O)c1ccc2[nH]cc(C(=O)NC3CCCC3)c(=O)c2c1 -46.7%
Cc1ccc(S(=O)(=O)c2nc(-c3cccs3)oc2N2CCCCC2)cc1 -18.9%
COc1ccc2c(c1)c1c(c(=O)n(-c3ccc(OC)c(OC)c3)c(=O)n1Cc1ccccc1C)n2C -2.31%
CC(=O)c1cccc(NS(=O)(=O)c2ccc3[nH]c4c(c3c2)CCCCCC4)c1 -30.6%
Cc1ccc(-n2ncc(C(=O)NCCN3CCN(C)CC3)c2C2CCN(C(=O)OC(C)(C)C)CC2)c(C)c1 2.6%
O=S(=O)(c1ccc(Br)cc1)c1nc(-c2ccco2)oc1SCc1ccccc1Cl -9.8%
Cc1ccc(CCNC(=O)c2nn(C)c3c2CSc2ccccc2-3)cc1 -26.7%
CCCCOc1ccc(CNC(=O)CN2CCSc3ccccc32)cc1 -27%
COc1cccc(CNC(=O)CCn2c(=O)c3cccn3c3ccc(F)cc32)c1OC -18.3%
COc1ccc(-n2nc(C(=O)N(C)c3cccc(C(F)(F)F)c3)c3c4ccccc4n(C)c3c2=O)cc1 -0.434%
NC(=O)c1cccc(-c2cc(Nc3ccc(OC(F)(F)F)cc3)ncn2)c1 -12%
CCCNC(=O)C1CCC(Cn2c(=O)c3sccc3n(Cc3cccc(OC)c3)c2=O)CC1 (configuration not stated) -11.6%
CCC(C(=O)N1CCN(c2cccc(C)c2C)CC1)n1nc(C)c2sc3ccccc3c2c1=O (configuration not stated) -4.29%
Cc1nc2nc(NC(=O)c3cccc(Cl)c3)[nH]n2c(=O)c1Cc1ccccc1 21.1%
CCOC(=O)C1CCC(CN(Cc2ccccc2)S(=O)(=O)c2ccc(Cl)cc2)CC1 (configuration not stated) -20.4%
CCOc1ccc(-n2c(-c3ccc(C)cc3)nc3c(cnn3-c3ccccc3)c2=O)cc1 -5.97%
Cc1ccc(NC(=O)CCn2c(=O)c3cccn3c3ccccc32)c(Cl)c1 -28.3%
COc1ccc(CCNC(=O)CCc2c(C)nc3c(c(C)nn3-c3ccc(C)c(C)c3)c2C)c(OC)c1OC -12.3%
CCOC(=O)c1c(S(=O)(=O)N2CCC(C(=O)Nc3ccccc3OC)CC2)c(C)n(CC)c1C 15.6%
COc1ccc(CCNC(=O)Cn2cc(C(=O)c3ccccc3)c(=O)c3ccc(C)nc32)cc1OC -10.3%
NS(=O)(=O)c1ccc(CCNC(=O)CCCCCn2c(=O)[nH]c3ccccc3c2=O)cc1 2%
COc1ccc(NC(=O)c2cn(CC(C)C)c(=O)c3cc(OC)c(OC)cc23)cc1Cl -34.5%
Cc1ccc(NC(=O)c2nn(C)c3c2CS(=O)(=O)c2ccccc2-3)c(Cl)c1 39.5%
Cc1nc(N2CCOCC2)c2c(C(=O)NCc3cccc(Cl)c3)c(C)oc2n1 1.37%
Oc1c(C(c2ccccc2)N2CCC3(CC2)OCCO3)sc2nc(-c3ccco3)nn12 (configuration not stated) -10.6%
O=C(CCCCCn1c(=O)c2sccc2n(CC(=O)Nc2cccc(Cl)c2)c1=O)NCc1ccc2c(c1)OCO2 -32.4%
CCOC(=O)Cc1ccc(NC(=O)Nc2cccc(OCc3cc(=O)n4cc(C)ccc4n3)c2)cc1 4.25%
COc1ccc(-c2nc3c(c(SCC(=O)Nc4ccc(C(=O)O)cc4)n2)Cc2ccccc2O3)cc1 -18.1%
CCc1cccc(NC(=O)CSc2ncc3c(n2)-c2ccc(Cl)cc2N(Cc2ccccc2)S3(=O)=O)c1 -1.27%
CCc1c(C)sc2c1CCN(C(=O)Nc1cc(OC)c(OC)c(OC)c1)C2c1ccccc1 (configuration not stated) -51.5%
COc1cccc(C(=O)NC2(C(F)(F)F)C(=O)Nc3c2c(=O)[nH]c(=O)n3-c2ccc(C)cc2)c1 (configuration not stated) -14.6%
CN(Cc1ccccc1)C(=O)CN1C(=O)CSc2ccc(S(=O)(=O)N3CCOCC3)cc21 -6.49%
COc1ccc(OC)c(S(=O)(=O)Nc2cc3c(cc2C)n(C)c(=O)c(=O)n3C)c1 -7.89%
COc1ccc(NC(=O)CCS(=O)(=O)c2nc(-c3cccs3)cc(C(F)(F)F)n2)cc1OC -93.8%
O=C(c1noc2c1CCCCC2)N1CCN(c2ccc(Cl)cc2)CC1 -23.8%
CCc1ccc(-c2cn3c(n2)sc2cc(C(=O)NCCc4ccc(OC)cc4OC)ccc23)cc1 -25.2%
COc1ccccc1NC(=O)Cn1c(=O)n(Cc2ccc3c(c2)OCO3)c(=O)c2oc3ccccc3c21 -6.57%
C#CC(C)(C)NS(=O)(=O)c1cc(-c2nnc(Nc3ccc(C)cc3)c3ccccc23)ccc1C -17.4%
Cc1ccc(NC(=O)NCc2ccc3c(c2)CCN3C(=O)c2ccccc2)c(Cl)c1 -25.8%
Cc1ccc(NC(=O)CN(c2ccccc2)S(=O)(=O)N(C)C)cc1Cl -33.2%
CCOC(=O)c1oc2ccc(S(=O)(=O)n3nc(-c4ccccc4OC)cc3N)cc2c1C -34%
O=C(c1ccc2c(c1)N(Cc1ccccc1F)C(=O)c1ccccc1S2(=O)=O)N1CCOCC1 -17.2%
CCCN(CCC)CCCNC(=O)Cn1cnc2sc(C)c(S(=O)(=O)N3CCCCC3)c2c1=O -0.7%
CCCN(Cc1cccs1)C(=O)Nc1cc(Cl)c(OC)cc1OC -18.2%
Cc1ccc(-c2nc3nc(C)cc(N4CCN(c5cc(Cl)ccc5C)CC4)n3n2)cc1 -12.7%
COc1cccc(-n2c(SCC(=O)Nc3cc(C)ccc3C)nc3c(oc4ccccc43)c2=O)c1 -17.3%
COc1ccc(-c2cc(C(=O)Oc3ccccc3)c3cc(C)ccc3n2)cc1 19.5%
CCn1c(=O)n(-c2ccc(C)c(F)c2)c(=O)c2sc3ccccc3c21 -12.2%
COc1ccc(C2=NC3(CCCCC3)N(CC(=O)Nc3ccc(C(C)C)cc3)C2=O)cc1 -20.6%
CCOCCCNC(=O)c1ccc2nc(CCc3ccccc3)oc2c1 21.7%
CCc1ccc(NC(=O)C(NS(=O)(=O)c2cccs2)C(C)C)cc1 (configuration not stated) -19.5%
CCCCN(C)CCNC(=O)c1ccc2c(=O)n(CCc3ccccc3)c(=O)[nH]c2c1 6.29%
Cn1c(=O)c2c(c3ccccc31)OC(=O)CC2c1ccc(C(F)(F)F)cc1 (configuration not stated) 11.2%
O=C(Nc1ccc2oc(-c3cccc4c(Br)cccc34)nc2c1)c1ccc(F)cc1 1.8% [at 11.5 µM, percent change from vehicle, -100% = no light]
COc1cccc(NC(=O)c2sc3nc(C)c(C(=O)Nc4ccc(C)cc4C)c(-c4ccccc4Cl)c3c2N)c1 -0.786%
CCc1ccc(-c2nc(CN3CCC(C(=O)NCCc4ccc(Cl)cc4)CC3)c(C)o2)cc1 -2.48%
CC1(C)O[C@H]2CC(=O)OC[C@]23[C@H]2CC[C@@]4(C)[C@H](c5ccoc5)OC(=O)[C@H]5O[C@]54[C@]2(C)C(=O)C[C@@H]13
O=C1CSC(=O)N1C(CCc1ccncc1)COc1ccc(-c2cccc([N+](=O)[O-])c2)cc1 (configuration not stated) -65.3%
Cc1ccc(CCNC(=O)c2ccc(NC(=O)N3CC(C)Sc4ccccc43)cc2)cc1 (configuration not stated) -5.7%
COC(=O)C1=C(c2ccccc2)c2ccccc2S(=O)(=O)N1CC(=O)Nc1cccc(C(C)=O)c1 -36.2%
NC(N)=NC(=O)Cc1c(Cl)cccc1Cl -14.9%
COc1cccc(CN2CCc3nc(Nc4ccc5c(c4)OCCO5)ncc3C2)c1 -2.08%
Cc1ccc2nc(N(Cc3cccnc3)C(=O)Cc3ccccc3)sc2c1 -9.73%
CCOC(=O)c1ccccc1NC(=O)Cn1ncc2c([nH]c3ccccc32)c1=O -24.7%
COc1cccc(C2CC(=O)Nc3cc4c(cc32)OCCO4)c1OC (configuration not stated) -27.7%
CCc1ccccc1NC(=O)CCn1nc(C)c2c(C)n(-c3ccccc3)nc2c1=O 14.6%
Cc1ccccc1Cn1c(SCc2ccc(C(=O)NC(C)c3ccccc3)cc2)nc2ccncc21 (configuration not stated) -19.5%
CCc1ccc(-n2c(=O)c3c4c(sc3n(CC(=O)NCCCOC)c2=O)CCCC4)cc1 -8.29%
O=C(NCCc1cccs1)c1ccc(Cn2c(SCc3ccc(F)cc3)nc3cccnc32)cc1 21.5%
COc1ccc(C(=O)CN2CCN(S(=O)(=O)c3ccc(C(C)C)cc3)CC2)cc1 -25.1%
N=c1c(C(=O)NCC2CCCO2)cc2c(=O)n3ccccc3nc2n1CCCO (configuration not stated) 19.9%
COc1ccc(F)cc1S(=O)(=O)NCC(c1ccco1)S(=O)(=O)c1ccc(F)cc1 (configuration not stated) -9.41%
COc1ccc(Cn2c(C(=O)O)c(CNCCc3ccco3)c3ccc(C)cc32)cc1 -23.6%
Cc1cc(C(F)F)n2nc(C(=O)Nc3cccc(Cl)c3C)nc2n1 -1.65%
Cc1ccccc1OCC(=O)Nc1ccccc1C(=O)OCc1cc(=O)n2ccsc2n1 -13.2%
Cc1nn(CCCC(=O)NCCc2ccc(Cl)cc2)c(=O)c2c1sc1ccccc12 -26%
Cn1ncc2c(NCc3ccccc3Cl)nc(NCCO)nc21 -14.2%
COc1ccc2c(c1)c1c(c(=O)n(-c3ccccc3)c(=O)n1CC(=O)NCCC1=CCCCC1)n2C -19.2%
O=C(Nc1ccc(-n2nncc2-c2ccccc2)cc1)c1cccc(F)c1 -21.3%
CCOc1ccc(CNC(=O)C2CCN(S(=O)(=O)c3cn(C)cn3)CC2)cc1 -3.34%
O=C(CN1C(=O)CCn2nc(-c3ccccc3)cc21)NCc1ccc(F)cc1 -14%
COc1ccccc1N1CCN(C(=O)c2cn(C)c3ccc(S(=O)(=O)N(C)C4CCCCC4)cc3c2=O)CC1 10.4% [at 11.5 µM, percent change from vehicle, -100% = no light]
CCOc1ccc(NC(=O)c2cnn(-c3ccc(C)c(C)c3)c2C2CCN(C(=O)OC(C)(C)C)CC2)cc1 -3.14%
CC1=C(C(=O)Nc2ccccc2)C(c2ccc(C(=O)O)cc2)n2ncnc2N1 (configuration not stated) -4.27%
CCOc1ccc(Nc2nc3c(S(=O)(=O)c4cccc(Cl)c4)nnn3c3ccsc23)cc1 -25.2%
